According to PubChem BioAssay AID1745853 (National Center for Advancing Translational Sciences (NCATS), 2022):
“And” between values parts separate entries of the source, which are not always exact repeats. Equal entries are not always repeated. The list shows a part of the results. Further columns of the screen follow, without active or inactive calls.

What was measured:
Assay in all cases: Primary Screen for Target Class Profiling of Small Molecule Inhibitors of Methyltransferases
[1] = target: Glycine N-methyltransferase (Homo sapiens) (UniProt Q14749); conditions: purified enzyme, MTase-Glo SAH luminescence; measured here: GNMT inhibition; at 40 µM; stronger effect = lower value
Procedure, shortened: (§1)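 Each enzyme was reacted with SAM and its substrate, with compounds tested once at 40 uM; SAH formed was read by MTase-Glo luminescence.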

[2] = target: Guanidinoacetate N-methyltransferase (Homo sapiens) (UniProt Q14353); conditions: purified enzyme, MTase-Glo SAH luminescence; measured here: GAMT inhibition; at 40 µM; stronger effect = lower value
Procedure, shortened: as §1

[3] = target: Histamine N-methyltransferase (Homo sapiens) (UniProt P50135); conditions: purified enzyme, MTase-Glo SAH luminescence; measured here: HNMT inhibition; at 40 µM; stronger effect = lower value
Procedure, shortened: as §1

[4] = target: Nicotinamide N-methyltransferase (Homo sapiens) (UniProt P40261); conditions: purified enzyme, MTase-Glo SAH luminescence; measured here: NNMT inhibition; at 40 µM; stronger effect = lower value
Procedure, shortened: as §1

[5] = target: Phenylethanolamine N-methyltransferase (Homo sapiens) (UniProt P11086); conditions: purified enzyme, MTase-Glo SAH luminescence; measured here: PNMT inhibition; at 40 µM; stronger effect = lower value
Procedure, shortened: as §1
% is scaled to controls: 0 for no effect and ±100 for the full control effect.

| SMILES | activity change, negative = inhibition [1] | activity change, negative = inhibition [2] | activity change, negative = inhibition [3] | activity change, negative = inhibition [4] | activity change, negative = inhibition [5] |
| --- | --- | --- | --- | --- | --- |
| CCCn1c(=O)c2ccc(C(=O)NC(C)C)cc2n2c(SCc3ccc(C)cc3)nnc12 | -2.98% | -1.36% | -2.79% | -17.1% | -4.3% |
| C[C@@H]1O[C@@H](O[C@H]2[C@H](O)[C@@H](O)[C@H](OC[C@H]3O[C@@H](OC(=O)[C@]45CCC(C)(C)C[C@H]4C4=CCC6[C@@]7(C)C[C@H](O)[C@H](O[C@@H]8O[C@H](CO)[C@@H](O)[C@H](O)[C@H]8O)[C@@](C)(C(=O)O)C7CC[C@@]6(C)[C@]4(C)CC5)[C@H](O[C@@H]4O[C@H](CO)[C@@H](O)[C@H](O)[C@H]4O)[C@@H](O)[C@@H]3O)O[C@@H]2CO)[C@H](O)[C@H](O)[C@H]1O (stereo not given in full) | 3.86% | 0.506% | 11.2% | -9.66% | 5.9% |
| CCC[C@@H]1C[C@@H](C(=O)N[C@@H]([C@H]2O[C@H](SC)[C@H](OP(=O)(O)O)[C@@H](O)[C@H]2O)[C@H](C)Cl)N(C)C1 | 5.03% | 3.42% | 10.9% | -6.64% | 3.61% |
| CC(O)c1cc(C(=O)N[C@@H](C)Cn2ccc(-c3ccc(C#N)c(Cl)c3)n2)n[nH]1 (stereo not given in full) | -8.52% | -6.08% | 7.82% | -25.3% | -5.25% |
| O=C(Nc1ccc(F)cc1F)N1Cc2c(sc3c2CCCC3)-n2cccc2C1c1ccccc1 (stereo not given) | -1.01% | 4.98% | -1.81% | 0.16% | 2.47% |
| COc1ccc(OC)c(CCNC(=O)CCc2nnc3n(Cc4ccc(Cl)cc4)c(=O)c4ccccc4n23)c1 | -4.11% | -7.84% | 4.68% | -19.8% | -4.79% |
| COC(=O)C1=CO[C@@H](O)[C@@H]2C(CO)=CC[C@H]12 | -2.55% and 3.5% | -6.95% and 11.3% | 2.42% and 1.91% | -15.3% and -2.83% | -3.91% and 7.65% |
| Cc1cccc(S(=O)(=O)N2[C@@H]3CC[C@H]2CC(NC(=O)c2ccncc2)C3)c1 (stereo not given in full) | -3.04% | -2.32% | -0.761% | -2.71% | -3.56% |
| CC(=O)Nc1ccn(C2COC(COC(=O)c3ccccc3)O2)c(=O)n1 (stereo not given) | 6.25% | 4.65% | 9.4% | -5.81% | 5.42% |
| Cc1nc(C(=O)NCC(=O)O)c(O)c2ccc(Oc3ccccc3)cc12 | -8.81% | -10.6% | -4.84% | -19.4% | -14.3% |
| COc1cccc(CN2C(=O)c3cc4ccccc4n3CC2(C)C(=O)NC2CCCCC2)c1 (stereo not given) | 0.587% | 2.22% | 7.6% | 3.74% | 1.93% |
| COc1cccc(CN2C(=O)c3ccc(-c4ccco4)n3CC2(C)C(=O)NCCC(C)C)c1 (stereo not given) | -14.4% | 3.1% | -2.13% | -17.9% | -3.2% |
| O=C(NCCCNCCCNC(=O)c1cccnc1)c1cccnc1 | 1.28% | 0% | 5.45% | 22.2% | 0.384% |
| C[C@@H]1O[C@@H](O[C@H]2[C@H](O[C@H]3CC[C@@]4(C)C(CC[C@]5(C)C4CC=C4[C@@H]6CC(C)(C)CC[C@]6(C(=O)O[C@@H]6OC[C@H](O)[C@H](O)[C@H]6O[C@@H]6O[C@@H](C)[C@H](O[C@@H]7O[C@H](CO)[C@@H](O)[C@H](O)[C@H]7O)[C@H](O)[C@H]6O)[C@H](O)C[C@]45C)C3(C)C)O[C@H](CO)[C@@H](O[C@@H]3OC[C@@H](O)[C@H](O)[C@H]3O)[C@@H]2O)[C@H](O)[C@H](O)[C@H]1O (stereo not given in full) | 3.68% | 2.39% | 8.92% | -7.08% | 2.64% |
| CCOC(=O)C1=C(N)Oc2ccc(Cl)cc2C1C(C#N)C(=O)OCC (stereo not given) | -3.65% | -2.09% | 1.12% | -16.8% | -5.46% |
| CCc1cccc(NS(=O)(=O)c2cc3[nH]c(=O)[nH]c3cc2C)c1 | 10.3% | 1.22% | 1.8% | -6.04% | -0.278% |
| COCCCc1sc(-c2ccccc2)nc1C(=O)Nc1ccccc1-c1nc2cc(CN3CCCC3)cnc2s1 | 4.27% | -2.38% | 8.05% | -10.9% | 5.67% |
| COc1ccc(F)cc1-c1cccc(C(=O)NCCNC(=O)c2ccccc2Cl)c1 | -3.85% | 0.212% | 3.06% | -4.55% | -2.84% |
| Cc1cc2c(cc3n2CC(C)(C(=O)NC2CCCCCC2)N(Cc2ccc(F)cc2)C3=O)o1 (stereo not given) | 0.802% | 0% | 3.94% | -1.69% | 0.253% |
| CCN1CCN(C(=O)c2ccc3nc(-c4cccnc4)oc3c2)CC1 | -6.55% | -8.7% | -3.77% | -11.5% | -6% |
| COc1cccc(S(=O)(=O)N2CCCC(Cc3nncn3C)C2)c1 (stereo not given) | -14.6% | -7.71% | 0.606% | -14.3% | -12.3% |
| O=C(CCc1nnc2n(Cc3ccccc3Cl)c(=O)c3ccccc3n12)NCc1cccnc1 | -10.6% | 0.755% | 1.01% | -4.57% | -2.57% |
| COCCNC(=O)C1(C)Cn2c(nc3ccccc32)C(=O)N1CCc1ccc(Cl)cc1 (stereo not given) | 0.083% | 2.06% | 8.73% | 11.8% | 3.17% |
| CN(c1cc(=O)c2ccnc(-c3ccc(F)c(Cl)c3)c2o1)C1CCOCC1 | -26.8% | -13.2% | -20.5% | -33% | 0.768% |
| COc1ccccc1-c1cccc(C(=O)N2CCN([S+](=O)([O-])c3c(C)noc3C)CC2)c1 | -4.21% | -5.82% | -1.78% | -9.63% | -17% |
| CC1(C(=O)NC2CCCCCCC2)Cc2ccccc2C(=O)N1C1CCCCCC1 (stereo not given) | 4.73% | 1.82% | 7.84% | 4.46% | 1.59% |
